The record followed here is US20240425575A1 (SOTER BIOPHARMA PTE, published 2024).

For test [1], the target named is T1, human ANG2 protein (623-AN-025/CF, R&D) (human, UniProt O15123 19-496, limits assumed).
T1 sequence (looked up): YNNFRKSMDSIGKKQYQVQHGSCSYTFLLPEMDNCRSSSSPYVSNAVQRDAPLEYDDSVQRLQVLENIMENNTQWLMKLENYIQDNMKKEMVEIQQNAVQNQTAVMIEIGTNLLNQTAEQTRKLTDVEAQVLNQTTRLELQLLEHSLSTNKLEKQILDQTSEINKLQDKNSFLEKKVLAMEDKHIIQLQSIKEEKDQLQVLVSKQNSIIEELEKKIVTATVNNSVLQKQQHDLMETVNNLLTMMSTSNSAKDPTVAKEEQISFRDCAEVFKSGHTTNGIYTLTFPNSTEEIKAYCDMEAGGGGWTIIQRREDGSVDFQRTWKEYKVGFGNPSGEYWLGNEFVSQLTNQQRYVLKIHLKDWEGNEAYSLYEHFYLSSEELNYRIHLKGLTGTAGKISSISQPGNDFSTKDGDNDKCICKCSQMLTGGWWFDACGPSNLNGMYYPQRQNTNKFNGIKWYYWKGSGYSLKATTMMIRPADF
Description: cell-based or functional assay.

Test [2] deals with T1, human ANG2 protein (623-AN-025/CF, R&D). Briefly: SPR (Biacore T200), antibody captured on Protein A chip, human ANG2 as analyte, 1:1 fit. As for the experimental part:
The test antibodies were captured by using a Sensor Chip ProteinA chip (GE, Cat. No. 28995056), and the antigen human ANG2 protein (623-AN-025/CF, R&D) was used as an analyte to detect kinetics and affinity data obtained after the antigen human ANG2 protein bound to the test samples. An initial concentration of the detection of the binding of the antigen to the test samples was 10 nM. […] The antigen was injected from the low concentration to the high concentration in sequence. One negative control (1×HBS-EP+buffer) and one repeated concentration (generally, the lowest concentration was repeated) were set. Before the injection, a flushing process of Start up (1×HBS-EP+buffer) was performed at least three times to balance the system. Binding and dissociation trends of the antigen and the test samples were detected. After the dissociation was completed, a regenerating agent was injected to regenerate the chip. After the chip regeneration was completed, the next concentration was detected. After the detection was completed, a data fitting experiment was performed through a 1:1 Binding fitting manner in data analysis software (Biacore T200 Evaluation Software).
For orientation: Surface plasmon resonance follows binding to a sensor surface in real time, without labels.

For test [3] the target is unchanged. Briefly: flow cytometry, inhibition of human ANG2 (10 µg/mL) binding to HUVEC cells. As for the experimental part:
HUVEC cells (H-003, Allcells) in a good growth state were prepared into a single cell suspension. After cell counting, the cells were plated in a 96-well plate in 10⁵ cells/well. A final concentration of the human ANG2 protein (623-AN-025/CF, R&D) was 10 μg/mL, which was constant. The antibodies to be detected were added to each well according to an experimental design, respectively. The highest concentration of the antibodies was 1000 nM, the antibodies were subjected to 5-fold dilution in sequence and 7 concentration gradients were set in total, and meanwhile, a blank control and a positive control RG7716 (ATAD00534, Atagenix) were set. After the cells were incubated for 30 min at room temperature, cells in each well were washed three times and resuspended, and fluorescence-labeled secondary antibodies PE anti-His (362603, Biolegend) were added and incubated in darkness for 30 min at room temperature. The cells in each well were washed three times, resuspended and loaded on a flow cytometer for detection.
On the technique in general: Flow cytometry measures light scatter and fluorescence of single cells or particles in a stream.

B1: Y400C (bispecific antibody, human IgG1, kappa)
heavy: EVQLVESGGGLVQPGGSLRLSCAASGYDFTHYGMNWVRQAPGKGLEWVGWINTYTGEPTYAADFKRRFTFSLDTSKSTAYLQMNSLRAEDTAVYYCAKYPYYYGTSHWYFDVWGQGTLVTVSS[human IgG1 constant region left out]GGGSEVQLVESGGGLVQPGESLRLSCVASGFPSGFTFSDYQMYWYRQAPGKERELVAIISNDGLRKTYADSVKGRFTISRDNAKNTMFLQMNSLKPEDTAVYVCNVRRANRDDWGQGTQVTVSS
light: DIQLTQSPSSLSASVGDRVTITCSASQDISNYLNWYQQKPGKAPKVLIYFTSSLHSGVPSRFSGSGSGTDFTLTISSLQPEDFATYYCQQYSTVPWTFGQGTKVEIKRTVAAPSVFIFPPSDEQLKSGTASVVCLLNNFYPREAKVQWKVDNALQSGNSQESVTEQDSKDSTYSLSSTLTLSKADYEKHKVYACEVTHQGLSSPVTKSFNRGEC
notes: Anti-VEGF IgG with the anti-ANG2 VHH at the C-terminus of each heavy chain: (VH)-(CH1)-(hinge)-(Fc)-(linker)-(VHH); also called bispecific antibody Y400C; diabody molecule Y400C
Take B1: the “IC50 of inhibition of AKT phosphorylation of human ANG2-dependent HUVEC cells” value in test [1] worked out at 1.26 nM. In test [2], this molecule registered a Kd of 0.545 nM, a koff of 0.000622 s⁻¹ and a kon of 1.14e+06 M⁻¹ s⁻¹. Further, the half-inhibitory concentration (IC50) in test [3] came to 19.4 nM.

B2: Y400E (bispecific antibody, human IgG1, kappa)
heavy: EVQLVESGGGLVQPGGSLRLSCAASGYDFTHYGMNWVRQAPGKGLEWVGWINTYTGEPTYAADFKRRFTFSLDTSKSTAYLQMNSLRAEDTAVYYCAKYPYYYGTSHWYFDVWGQGTLVTVSS[human IgG1 constant region left out]GGGSGGGGSGGGGSEVQLVESGGGLVQPGESLRLSCVASGFPSGFTFSDYQMYWYRQAPGKERELVAIISNDGLRKTYADSVKGRFTISRDNAKNTMFLQMNSLKPEDTAVYVCNVRRANRDDWGQGTQVTVSS
light: B1 light
notes: Anti-VEGF IgG with the anti-ANG2 VHH at the C-terminus of each heavy chain: (VH)-(CH1)-(hinge)-(Fc)-(linker)-(VHH); also called bispecific antibody Y400E; diabody molecule Y400E
On to B2, for which the “IC50 of inhibition of AKT phosphorylation of human ANG2-dependent HUVEC cells” value in test [1] turned out to be 2.27 nM. Besides, in test [2], the Kd is 0.453 nM, the koff amounted to 0.000873 s⁻¹ and the kon is 1.93e+06 M⁻¹ s⁻¹. In test [3], this molecule returned an IC50 of 30.3 nM.

What is called Kd is the equilibrium constant for the complex coming apart. For orientation: koff means the first-order rate constant of dissociation. The low end stands for slow dissociation, the high end for fast dissociation. By kon is commonly meant the second-order rate constant of association. Low readings indicate slow association, high ones fast association. As a reminder, the IC50 is the concentration that inhibits the measured activity by half.
